Here are results for 94 sequences from the supplement of paper PMC3334620.

The full ranking holds about 33,000 sequences; the median of “E-score (-0.5 to 0.5)” is about -0.013, and the highest 2% start at about 0.3. The list shows a part of the results.

In the test the target is T1, Msn1 (UniProt P22148).
T1 sequence: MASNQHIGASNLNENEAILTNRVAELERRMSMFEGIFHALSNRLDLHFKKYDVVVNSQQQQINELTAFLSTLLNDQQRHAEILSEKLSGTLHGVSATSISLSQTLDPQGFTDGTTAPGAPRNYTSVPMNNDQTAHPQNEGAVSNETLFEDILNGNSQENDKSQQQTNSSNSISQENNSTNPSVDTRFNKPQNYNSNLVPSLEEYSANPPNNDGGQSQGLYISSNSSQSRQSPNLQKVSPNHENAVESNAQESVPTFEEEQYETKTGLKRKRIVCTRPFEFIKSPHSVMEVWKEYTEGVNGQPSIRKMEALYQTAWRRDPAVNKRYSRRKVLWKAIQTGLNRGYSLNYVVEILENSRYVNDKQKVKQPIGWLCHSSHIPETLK
Put plainly: PBM E-score (8-mer binding enrichment) (E-score (-0.5 to 0.5)); higher = stronger / more preferred TF binding; most listed sequences are background and not binding sites. The following applies: protein concentration: 200 nM; construct: GST-full length. The essentials:
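E-scores (a modified Wilcoxon-Mann-Whitney statistic) were assigned by the Universal PBM Analysis Suite to every ungapped eight-base word pooled with its reverse complement. The input came from universal all-10-mer Agilent arrays made double-stranded by primer extension and probed with GST-tagged yeast transcription factors at about 100-200 nM. Fluorescent anti-GST detected bound protein, and masliner normalised the scans.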
With CGGCAGTC, the “PBM E-score” value was -0.0355. In the case of CCAGTTCC, the “PBM E-score” value was -0.19.

With AAGCTAGT, the “PBM E-score” value came out at 0.00994. With AACCAATT, the “PBM E-score” value came to 0.0568. Regarding CTTTGAAA, the “PBM E-score” value is -0.00217. The value for TCAGTCCA was -0.0538. Regarding GCTGTCCA, the “PBM E-score” value was found to be 0.159.

For the sequence ATCAATAA, the “PBM E-score” value turned out to be 0.0916. In the case of AAGTCGAA it was 0.0653.

For the sequence CGCTGCGC, the “PBM E-score” value is -0.118.

Turning to AACCGCTA, the “PBM E-score” value was -0.0103. In the case of CGTCAAAC it was 0.0107. In the case of AACAACGA it was 0.139; in that of CAGGGCGG, -0.18; in that of AATGACAA, 0.29. In the case of AGGTCACA it was -0.146; in that of GCGGTCAC, -0.172.

TAGGCGAA: the “PBM E-score” value was -0.0403. On to AGGACCTA, for which the “PBM E-score” value turned out to be 0.0657.

ACGAGACC: the “PBM E-score” value was -0.0967.

Turning to CGCAGGCG, the “PBM E-score” value is -0.134. The value for AGCGATAG was -0.16; that for CCATGTTA was 0.119; that for CCTCGTAA was 0.0848. In the case of AGCGTCGG it was 0.0359; in that of TAATACCA, 0.174; in that of ACAGAGAG, -0.195.

Turning to AACTTCTA, the “PBM E-score” value is -0.0235. In the case of CCAGTTTA it was -0.0582; in that of ATAGCAAC, -0.0933; in that of AAGAGGGA, -0.207.

For CGACGCAA, the “PBM E-score” value was 0.0192. The value for TCGCCGCA was -0.166; that for AGAGACGG was -0.111. Turning to AGGTGTGA, the “PBM E-score” value is -0.175. In the case of AGTCTGTC it was 0.0754; in that of ACTAGTGG, 0.131. For the sequence CCGCGCGG, the “PBM E-score” value was found to be 0.232.

With CGGGTCCA, the “PBM E-score” value is -0.0128.

On to AGGGTGCG, for which the “PBM E-score” value is -0.228.

Regarding ACAATACA, the “PBM E-score” value came out at 0.0447. The value for CGATACAA was 0.149; that for AGAGAGCA was -0.26. The value for ACCAATAC was 0.0858. TTAACAAA: the “PBM E-score” value was determined as 0.204. The value for GCGTCGCA was -0.182.

As for CACAAATA, the “PBM E-score” value is 0.185. Regarding TCCCGCGA, the “PBM E-score” value was -0.0223. The value for CGCCGTAG was 0.0177. For GGCGAACC, the “PBM E-score” value is -0.109.

CAAAACTC: the “PBM E-score” value was 0.166. In the case of ACTTATGC it was 0.0829; in that of GAGATATC, 0.0403; in that of CGAATTAC, -0.0698. In the case of GCCCGCTA it was -0.211.

For TGATGACA, the “PBM E-score” value amounted to 0.299. In the case of CCCCATTC it was -0.12. On to CGAGTTCC, for which the “PBM E-score” value came to 0.0314. Consider TAATCATA, for which the “PBM E-score” value is 0.168.

GAAACTGC: the “PBM E-score” value was -0.196. The value for GGAGGTAC was -0.169. Regarding ATGCCACA, the “PBM E-score” value was 0.0572. The value for AGGAGCGG was -0.424; that for AAGGCCAC was -0.252. Regarding GCCGGGAC, the “PBM E-score” value came to 0.119.

Turning to GACGCCGA, the “PBM E-score” value worked out at 0.0972.

For CCACCAGC, the “PBM E-score” value was -0.136. In the case of AGTACCTA it was 0.04; in that of TATGAATA, 0.114. The value for GTAAACAC was 0.0263; that for AGTTAACA was 0.0679; that for CACTTTCA was 0.0218. In the case of GACCGTCA it was 0.0609; in that of GCATGACC, -0.202; in that of AACAGCAT, -0.0683.

For ATAGGGCA, the “PBM E-score” value is -0.101. Take CCATACCG: the “PBM E-score” value is -0.101. The value for TCGGAAAA was 0.245; that for AATGACCA was 0.181. The value for AGTTCGAC was -0.0162. In the case of CGTGCACA it was -0.0375. Regarding ATGCATTC, the “PBM E-score” value turned out to be 0.0542. In the case of GCTCCGCA it was -0.0375; in that of GCAACTTA, 0.0391; in that of CCCTCGAA, -0.0781. CATAGCCG: the “PBM E-score” value was found to be 0.128. In the case of GTGCTAAA it was 0.00368. Regarding ACCACTAC, the “PBM E-score” value is -0.179. In the case of CCCAGGAG it was -0.422; in that of CCAGGGCA, -0.197. In the case of AGTACTTA it was 0.0636; in that of ATAAGGTC, 0.0376. As to ACGGGATA, the “PBM E-score” value was 0.0493. Consider AGCCAACG, for which the “PBM E-score” value is -0.102.
